Our source for the binding signal values is paper PMC10668032.

This is one part of the list. At the low end of the ranking, values are background and their order means little.

The target in the assay is SIX1 homeodomain (reference allele) (UniProt Q15475). Put plainly: universal protein binding microarray. Particulars: Universal all-10-mer PBM (8x60K, AMADID 030236), 300 nM GST-tagged protein, Alexa Fluor 488 anti-GST; buffer, salt, pH and temperature not stated; high values mean tight binding; most listed sequences are background and not binding sites; double strand, one strand shown.
Regarding GCCCACTA, the binding signal is -0.224 E-score.
The same measure for AAGTCATC: -0.15 E-score.
The same measure for GGTTTTCA: -0.161 E-score; for AGCTAACG: -0.207 E-score.
For GCCCACGA the value was -0.204 E-score; for CCCGGATA, 0.424 E-score.
AGCCTGCG: the binding signal was -0.0767 E-score.
In the case of AGGTAAAA, the binding signal is -0.253 E-score.
Turning to CGCAGTGC, the binding signal was -0.284 E-score.
On to GGAGAACA, for which the binding signal is -0.095 E-score.
As to AATCCCCG, the binding signal is 0.212 E-score.
In the case of ACCCTGAA, the binding signal amounted to 0.124 E-score.
The same measure for CCTAGTGA: 0.113 E-score; for AGAGTCAC: -0.177 E-score.
AGCTCGAA: the binding signal is -0.288 E-score.
For the sequence CTTCGTCC, the binding signal is -0.136 E-score.
Regarding GGGAGGGA, the binding signal turned out to be 0.0773 E-score.
Turning to CCAACTCC, the binding signal is -0.0817 E-score.
For TACCCCTA, the binding signal came to 0.34 E-score.
For the sequence CGTATGGA, the binding signal turned out to be 0.0654 E-score.
On to AGGCTCAA, for which the binding signal is -0.165 E-score.
For CCAAGTCG, the binding signal is -0.0485 E-score.
Regarding ATCCCAAA, the binding signal is 0.145 E-score.
Regarding ATGCACGA, the binding signal is 0.136 E-score.
The same measure for TAATGCAA: -0.107 E-score; for GTCTTAAC: -0.0945 E-score; for CCCGCGCA: 0.0663 E-score.
The same measure for ATAGCACG: 0.0367 E-score; for CCTGAACC: -0.000955 E-score; for GAGGGCAC: -0.245 E-score.
Regarding CGAGTGAG, the binding signal came out at 0.162 E-score.
On to CCCACTTC, for which the binding signal was 0.0147 E-score.
As to CCTCAAGG, the binding signal was found to be 0.117 E-score.
For ACCTTCAA the value was -0.13 E-score; for AATCCGCG, 0.2 E-score.
In the case of ATAGAAAA, the binding signal is -0.17 E-score.
In the case of TCGACGCA, the binding signal is -0.0232 E-score.
The same measure for ATCATGGA: 0.171 E-score.
As for CGAGGAAA, the binding signal was -0.111 E-score.
With ATGGTAAT, the binding signal worked out at 0.111 E-score.
Take GACTGAGC: the binding signal was -0.112 E-score.
In the case of CACGCGTA, the binding signal was 0.0305 E-score.
For the sequence CCACACTC, the binding signal came out at 0.0208 E-score.
ATTGCCAG: the binding signal came out at 0.0364 E-score.
For CAATGGTG the value was -0.0826 E-score; for GCAACAGC, -0.191 E-score; for AACATGTG, -0.104 E-score.
In the case of ACTCGCAA, the binding signal is -0.116 E-score.
With CGGCCCGA, the binding signal is 0.0288 E-score.
For AGCTCGCA, the binding signal is -0.0771 E-score.
Take ACCATACT: the binding signal came out at 0.0465 E-score.
As for GTTAGAAA, the binding signal was -0.15 E-score.
Regarding AATTTAAG, the binding signal was -0.138 E-score.
Regarding AAATCTTG, the binding signal was -0.284 E-score.
For CGAACTAC, the binding signal is -0.0757 E-score.
In the case of GGTCCTAC, the binding signal was -0.224 E-score.
Take GCCAGCAA: the binding signal was -0.189 E-score.
On to GCCCGATA, for which the binding signal came out at 0.33 E-score.
Consider CAGCGAAA, for which the binding signal was -0.251 E-score.
With CATGGGTC, the binding signal was 0.0895 E-score.
CTCCCCTA: the binding signal came out at 0.152 E-score.
The same measure for GCCCGGAC: -0.201 E-score; for TCCCTACA: 0.021 E-score; for AGGTATAG: 0.262 E-score.
As to TAATCTCA, the binding signal is 0.186 E-score.
For CGTGTTTA, the binding signal is -0.123 E-score.
Take ACTATGTC: the binding signal is -0.151 E-score.
With CCCCAGCG, the binding signal is -0.00653 E-score.
Take AGTACCTG: the binding signal stood at 0.0686 E-score.
For AGTGTAAT, the binding signal was -0.00985 E-score.
Regarding ACCTCTGG, the binding signal was -0.0899 E-score.
AGTTTGCA: the binding signal was -0.221 E-score.
In the case of TTAAGGAA, the binding signal was -0.108 E-score.
Turning to GTCGGCAA, the binding signal is -0.34 E-score.
For the sequence CAATTCAA, the binding signal is -0.0583 E-score.
As for GTAGTAAA, the binding signal was -0.204 E-score.
For AACTGGTC, the binding signal is -0.133 E-score.
As to GTGATGTA, the binding signal was 0.0932 E-score.
As for ATGCGTTG, the binding signal is -0.0451 E-score.
Regarding CCGACATA, the binding signal is 0.0799 E-score.
As for ACGACCGA, the binding signal is -0.101 E-score.
As for GGCGCGAC, the binding signal was -0.136 E-score.
As to CCCAATGA, the binding signal turned out to be 0.0613 E-score.
Take TACTTAAA: the binding signal is -0.134 E-score.
Consider CGAGAAAA, for which the binding signal is -0.24 E-score.
As for ACTTCGCG, the binding signal is -0.151 E-score.
For GCACCTGA, the binding signal was -0.186 E-score.
In the case of CAGGAATG, the binding signal was -0.179 E-score.
As for GGTTATAA, the binding signal was -0.105 E-score.
Consider GGTAGCCA, for which the binding signal is -0.134 E-score.
The same measure for ATCCACCA: 0.235 E-score.
For ACGACCCC, the binding signal was -0.0301 E-score.
For the sequence CCTCTCCG, the binding signal is -0.182 E-score.
For AACTGAGC, the binding signal was determined as 0.00265 E-score.
For the sequence CCCTCAGC, the binding signal was -0.00513 E-score.
For ACGTCGCG, the binding signal is -0.0436 E-score.
With AAACCCCG, the binding signal was found to be 0.0585 E-score.
For the sequence CCAGGACG, the binding signal is -0.0378 E-score.
For the sequence AGAAAGTA, the binding signal is -0.0383 E-score.
The same measure for ATGCCAAT: 0.0513 E-score; for ATCCCTTG: 0.271 E-score.
The same measure for AGGCTCTC: -0.122 E-score; for GGCGACGA: -0.221 E-score; for GAGAGGAC: -0.021 E-score.
On to CACGGATC, for which the binding signal is 0.405 E-score.
For TATTACAA, the binding signal came out at 0.0752 E-score.
As to ATTGTCGC, the binding signal was -0.0619 E-score.
On to GCAGGAGC, for which the binding signal was -0.05 E-score.
With AGGTATTG, the binding signal worked out at 0.29 E-score.
Regarding CTCTTGGC, the binding signal is -0.153 E-score.
The same measure for AATGTGGG: -0.0088 E-score.
For CTTTTGAA the value was -0.147 E-score; for CATAGGAC, -0.197 E-score; for CAGGCCCA, -0.114 E-score.
For CCCCCGCC, the binding signal stood at 0.191 E-score.
AGGTATTC: the binding signal is 0.121 E-score.
For ATTTCCAA, the binding signal was -0.274 E-score.
AAACGTAC: the binding signal is -0.172 E-score.
Take CATCAAGA: the binding signal is -0.144 E-score.
Regarding CTTTAAAC, the binding signal is -0.187 E-score.
The same measure for AAGGTACG: 0.0146 E-score.
As for CCGTTAAA, the binding signal is -0.19 E-score.
As to ACATTGCA, the binding signal was -0.137 E-score.
For AGATTCCC the value was 0.0722 E-score.
CGAGCGTC: the binding signal is -0.147 E-score.
Consider TAAGTCTA, for which the binding signal is -0.141 E-score.
The same measure for CGTCCACA: -0.0608 E-score; for ATGATATG: 0.472 E-score; for GAGGGCGC: -0.125 E-score.
Take CGCAATAC: the binding signal amounted to 0.266 E-score.
With CTACAGTA, the binding signal turned out to be 0.152 E-score.
On to ACCGACAT, for which the binding signal was 0.141 E-score.
The same measure for ATCACGTC: 0.189 E-score.
As to GCTAACTA, the binding signal is -0.0989 E-score.
With CGCTTTAC, the binding signal is -0.16 E-score.
The same measure for TACAGGTA: 0.244 E-score; for AATAACGA: 0.073 E-score.
With AATGTAGG, the binding signal was -0.211 E-score.
On to AAAATTGT, for which the binding signal is -0.236 E-score.
On to AGCCGCGG, for which the binding signal is -0.0318 E-score.
For ACCGCTCA the value was -0.0413 E-score; for CTCGTGTA, 0.158 E-score.
CACATCCA: the binding signal was -0.112 E-score.
Turning to AATCAGGT, the binding signal stood at 0.0776 E-score.
For CTAGTCGC the value was -0.033 E-score; for GAAGTAGA, -0.123 E-score; for CAACTTGC, -0.267 E-score.
The same measure for CGGGGCAC: -0.0299 E-score.
The same measure for GAGCTTCA: -0.273 E-score; for GGAGGGCA: -0.0322 E-score; for CCGTGTGA: 0.0686 E-score.
As to GCGAGACC, the binding signal was -0.0484 E-score.
For the sequence ACTTCCAC, the binding signal is -0.105 E-score.
In the case of GGCCTATA, the binding signal is -0.0709 E-score.
Take GAGCAACA: the binding signal was -0.126 E-score.
Turning to ACTGCACT, the binding signal is -0.154 E-score.
For AGGATACG, the binding signal was found to be 0.386 E-score.
Consider CATGTCTA, for which the binding signal was -0.0322 E-score.
For the sequence CCACGAAG, the binding signal was -0.148 E-score.
In the case of CAACCTCG, the binding signal is -0.0547 E-score.
Consider CGCCCACC, for which the binding signal was -0.145 E-score.
With CAGCGAAG, the binding signal was -0.295 E-score.
Consider CAATGCAA, for which the binding signal was -0.0829 E-score.
The same measure for AGTTCTCA: 0.0838 E-score; for CGCAGCTA: -0.13 E-score.
In the case of CGAGAGAC, the binding signal amounted to 0.0143 E-score.
The same measure for GTTGAGCA: -0.123 E-score; for AGTACACT: -0.0294 E-score; for GATGCATA: 0.0989 E-score.
CTTTTGGA: the binding signal is -0.159 E-score.
In the case of ACTAACGA, the binding signal turned out to be 0.0582 E-score.
Take CGCGCCAC: the binding signal is -0.206 E-score.
Turning to AACGCAGG, the binding signal was -0.186 E-score.
Regarding ATACCCTC, the binding signal is 0.441 E-score.
As to CCCTATCG, the binding signal came out at 0.357 E-score.
For CCCCAAAA the value was -0.0366 E-score; for AGCTTACA, -0.042 E-score.
Regarding ACCAACAT, the binding signal was -0.0135 E-score.
As for AACGATTA, the binding signal is 0.0243 E-score.
In the case of CTCCTTTC, the binding signal is -0.00379 E-score.
Regarding ATGATCCC, the binding signal came out at 0.448 E-score.
In the case of GGGCACCA, the binding signal was -0.171 E-score.
For the sequence TACAAGAA, the binding signal was -0.0314 E-score.
As to GTATAAGA, the binding signal stood at 0.224 E-score.
As to GGCAGCAA, the binding signal is -0.335 E-score.
As for CGAGCAAA, the binding signal is -0.256 E-score.
CGGCAGCC: the binding signal stood at 0.0495 E-score.
For AGCCCCAA the value was -0.0443 E-score; for CCCGAAAA, 0.0634 E-score.
For the sequence AGAGCAGG, the binding signal was -0.0175 E-score.
On to GTAGTAAC, for which the binding signal was -0.0366 E-score.
For TATATCCA, the binding signal worked out at 0.335 E-score.
In the case of ACGATCAG, the binding signal came to 0.197 E-score.
For ACACAAGG the value was -0.0763 E-score; for GAACAATA, 0.2 E-score; for ATATGACG, 0.227 E-score.
The same measure for CTACGCCA: -0.147 E-score; for AAGATAGC: 0.0922 E-score; for CCCCATTA: 0.00556 E-score.
As to AGCTTTGA, the binding signal was -0.0794 E-score.
Regarding CAGCTATA, the binding signal is 0.172 E-score.
Turning to GAATACAA, the binding signal was 0.108 E-score.
For AACGAAAC the value was 0.0183 E-score; for GTGTCGAA, 0.142 E-score.
In the case of ATTTAACC, the binding signal turned out to be 0.0553 E-score.
Take GCTACGTA: the binding signal was found to be 0.144 E-score.
The same measure for ACCTACGC: -0.131 E-score; for CATGGCGA: -0.0329 E-score; for CCCATTCG: -0.167 E-score.
For the sequence AAGCACTG, the binding signal is -0.134 E-score.
The same measure for TAACCGCA: 0.0847 E-score.
Consider GCGAGTAC, for which the binding signal worked out at 0.033 E-score.
Regarding ACCTCCTG, the binding signal is -0.0308 E-score.
As for GGGTGCTA, the binding signal came out at 0.0697 E-score.
The same measure for TCAGATCA: 0.243 E-score; for TACCACAA: 0.0676 E-score.
As for GTATGGAA, the binding signal was -0.162 E-score.
In the case of AATTCGCA, the binding signal is -0.168 E-score.
Take GCGAAAGC: the binding signal was -0.19 E-score.
